Measured values published in article PMC6919601, “Identification of Plasmodium dipeptidyl aminopeptidase allosteric inhibitors by high throughput screening” (PLoS ONE, 2019).
Among all 110,000 compounds or so, about 230 (0.21%) showed an effect of 50% or more. Some of the results follow.

target: DPAP1 (Plasmodium falciparum, UniProt Q8IIJ9); experiment: primary screen, percent inhibition; read by cleavage of a fluorogenic dipeptide substrate; higher = more effect of the substance; design: species or system P. falciparum D10 trophozoite lysates; single well
Sequence (Q8IIJ9 whole entry, looked up): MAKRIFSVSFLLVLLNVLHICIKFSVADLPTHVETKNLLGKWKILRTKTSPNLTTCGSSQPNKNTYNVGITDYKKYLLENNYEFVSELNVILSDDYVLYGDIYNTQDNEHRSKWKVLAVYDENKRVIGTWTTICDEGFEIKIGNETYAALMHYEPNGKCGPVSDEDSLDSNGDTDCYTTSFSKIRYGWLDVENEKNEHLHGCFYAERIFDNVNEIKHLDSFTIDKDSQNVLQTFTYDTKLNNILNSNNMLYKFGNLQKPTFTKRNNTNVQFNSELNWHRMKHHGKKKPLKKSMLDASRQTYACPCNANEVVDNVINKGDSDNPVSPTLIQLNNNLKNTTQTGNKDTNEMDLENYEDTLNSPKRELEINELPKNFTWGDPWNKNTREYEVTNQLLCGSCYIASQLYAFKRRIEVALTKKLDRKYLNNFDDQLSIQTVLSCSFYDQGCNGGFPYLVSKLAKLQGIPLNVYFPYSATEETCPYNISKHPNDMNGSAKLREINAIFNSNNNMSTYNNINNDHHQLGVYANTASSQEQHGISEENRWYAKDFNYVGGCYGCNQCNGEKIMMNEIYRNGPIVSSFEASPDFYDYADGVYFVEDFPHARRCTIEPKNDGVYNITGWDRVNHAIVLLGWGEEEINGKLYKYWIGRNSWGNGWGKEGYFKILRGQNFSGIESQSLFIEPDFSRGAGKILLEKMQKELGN
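Note: 30 min substrate incubation versus DMSO and 10 µM JCP410 controls.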

**Q.** For Clc1ccccc1OCc1nn2c(-c3ccccc3)nnc2s1, which “% Inhibition @ 10 uM” value is on record?
**A.** 4.96%

**Q.** For COc1ccc(C2C3=C(O)CCCC3=NC(C)=C2C(=O)Nc2c(F)cccc2F)c(OC)c1 (stereo not shown), which “% Inhibition @ 10 uM” value is on record?
**A.** -0.105%

**Q.** Which “% Inhibition @ 10 uM” value does the source give for CCOC(=O)c1sc(C)c2c(O)nc(-c3ccccc3)nc12 here?
**A.** -1.47%

**Q.** For Cc1ccc(S(=O)(=O)N(CC(=O)Nc2cccnc2)c2cccc(Cl)c2C)cc1, which “% Inhibition @ 10 uM” value is on record?
**A.** -7.9%

**Q.** How did the “% Inhibition @ 10 uM” value turn out when COc1ccc(-c2cc(-c3ccc(OC)cc3)c(C#N)c(SCC(=O)c3ccc(Cl)cc3)n2)cc1 was run?
**A.** 3.01%

**Q.** Which “% Inhibition @ 10 uM” value does the source give for Cc1ccc(-c2nccnn2)cc1 here?
**A.** -4.75%

**Q.** Which “% Inhibition @ 10 uM” value does the source give for CCOC(=O)c1cnc2cc(C)nn2c1-c1ccccc1 here?
**A.** 1.52%

**Q.** How did the “% Inhibition @ 10 uM” value turn out when Cc1cc(OCCN2CCOCC2)ccc1C(C)C was run?
**A.** 1.41%

**Q.** How did the “% Inhibition @ 10 uM” value turn out when CC(C)C[C@H](NC(=O)N1CCN(CC(=O)N2CCCC2)CC1)C(=O)NCC#N was run?
**A.** -6.98%

**Q.** Which “% Inhibition @ 10 uM” value does the source give for O=C(CCCn1c(=O)c2cccn2c2cccnc21)NC1CCCc2ccccc21 (stereo not shown) here?
**A.** -5.74%

**Q.** With CCOc1ccc(CCNC(=O)CN(C)S(=O)(=O)c2cccc3nsnc23)cc1OCC as the compound, how does the “% Inhibition @ 10 uM” value read?
**A.** 2%

**Q.** With Cc1ccc2ccc(C)[n+](CCCS(=O)(=O)O)c2c1 as the compound, how does the “% Inhibition @ 10 uM” value read?
**A.** -5.63%

**Q.** Which “% Inhibition @ 10 uM” value does the source give for CCOc1ccc(/C=C2N=C(/C=C/c3ccccc3)OC/2=O)cc1 here?
**A.** 1.28%

**Q.** Which “% Inhibition @ 10 uM” value does the source give for CCOC(=O)c1c(NC(=O)Nc2nnc(N(C)C3CCCCC3)s2)sc2c1CCCC2 here?
**A.** -4.68%

**Q.** With Cc1ccc(C)c(NC(=O)CSC2=C(C#N)C(c3ccccc3)CC(=O)N2)c1 (stereo not shown) as the compound, how does the “% Inhibition @ 10 uM” value read?
**A.** -3.1%

**Q.** For O=C(NC1CC1)c1ccc(CSCc2ccc(Cl)cc2)o1, which “% Inhibition @ 10 uM” value is on record?
**A.** -1.34%

**Q.** How did the “% Inhibition @ 10 uM” value turn out when Cc1oc(-c2ccc(C(=O)NCc3ccc4c(c3)OCO4)cc2)nc1CSc1ccccc1 was run?
**A.** 2.32%

**Q.** COc1ccc(C2=NOC(C(=O)N(C)C3CCCCC3)C2)cc1 (stereo not shown) was tested. Which “% Inhibition @ 10 uM” value did it give?
**A.** 4.74%

**Q.** How did the “% Inhibition @ 10 uM” value turn out when Cc1noc(C)c1C(=O)NC(CO)Cc1ccccc1 (stereo not shown) was run?
**A.** 6.17%

**Q.** COc1cccc2cc(C(C)=O)oc12 was tested. Which “% Inhibition @ 10 uM” value did it give?
**A.** 6.99%

**Q.** How did the “% Inhibition @ 10 uM” value turn out when Cc1cc2cc(CNC(=S)NCCc3ccccc3)ccc2n1C was run?
**A.** -5.58%

**Q.** How did the “% Inhibition @ 10 uM” value turn out when COCc1cc(C)n(CC(=O)Nc2cccc(C(F)(F)F)c2)c(=O)c1C#N was run?
**A.** -0.736%

**Q.** Which “% Inhibition @ 10 uM” value does the source give for CC(C)(C)c1cc(C(=O)Nc2ccc(C(=O)O)cc2)cc(C(C)(C)C)c1 here?
**A.** -5.35%

**Q.** For CCC(C)c1ccc(S(=O)(=O)CCc2ccncc2)cc1 (stereo not shown), which “% Inhibition @ 10 uM” value is on record?
**A.** -2.62%

**Q.** COc1ccc(C(c2c(C)nn(C(N)=S)c2O)C(C#N)C#N)cc1 (stereo not shown) was tested. Which “% Inhibition @ 10 uM” value did it give?
**A.** 2.17%

**Q.** With COc1ccc(C2CC(C(F)(F)F)n3ncc(C(=O)Nc4ccc(F)cc4F)c3N2)cc1OC (stereo not shown) as the compound, how does the “% Inhibition @ 10 uM” value read?
**A.** -2.58%

**Q.** CC(C)Nc1nc(NCCO)nc(N2CCOCC2)n1 was tested. Which “% Inhibition @ 10 uM” value did it give?
**A.** 4.86%

**Q.** How did the “% Inhibition @ 10 uM” value turn out when Clc1ccc(-c2noc3ncnc(N(CCCN4CCOCC4)Cc4ccco4)c23)cc1 was run?
**A.** -2.41%
